# Laboratory results: PubChem BioAssay AID686978 (National Center for Advancing Translational Sciences (NCATS), 2013)
# Among all 420,000 compounds or so, about 64,000 (15%) were called active. Inconclusive results, whose numbers are uncertain, are shown with a selection of clear calls. The call rests on the fitted dose curve; in most records, active means well fitted inhibition curve with a large enough effect; inconclusive means small, poorly fitted or top-dose-only effect; inactive means flat fitted curve, though single readings scatter. No potency is given beside an inconclusive call; the fits are too rough.
# Test: qHTS for Inhibitors of human tyrosyl-DNA phosphodiesterase 1 (TDP1): qHTS in cells in absence of CPT; further: nearly all actives have a fitted effect of over 55% in size
# Details: DT40 Tdp1-/- hTDP1 cells, no CPT, ATP luminescence, 48 h; activity change, negative = growth inhibition: at 46.2 µM (top of the series) unless noted
# Outline: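 Growth of hTDP1-complemented DT40 Tdp1-knockout cells is measured by ATP luminescence after at least 48 hr compound exposure at 37 °C, with DMSO substituting for the 20 nM CPT used in the parallel screen.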
# On the % scale 0 is the no-effect control and ±100 the full control effect; potency means the concentration at half of the fitted maximal effect; tags describe the fitted curve by direction and shape.
Structure (SMILES),Potency,"activity change, negative = growth inhibition"
COc1ccc(N(C(=O)COc2c(C)cccc2C)S(=O)(=O)c2ccc(Cl)cc2)cc1,"inconclusive [inhibitor, single point]",
Cc1cccc(N2CCN(S(=O)(=O)c3ccc4oc(=O)c5ncn(C)c5c4c3)CC2C)c1 (stereo not given),inactive,
CCOC(=O)N1CCN(C(=O)c2ccc(CS(=O)(=O)c3ccc(OC)cc3)o2)CC1,"inconclusive [inhibitor, single point]",
COc1ccc(CC(=O)Nc2nnc(SCc3ccccc3)s2)cc1S(=O)(=O)N1CCOCC1,"inconclusive [inhibitor, single point]",
COC(=O)c1ccc(SCc2ccccc2)nc1,"inconclusive [inhibitor, single point]",
CCC(C)[C@H]1CN=C(N)N1CCc1cc(C(F)(F)F)cc(C(F)(F)F)c1 (stereo not given in full),active: 4.61 µM,
N#CC(c1ccccc1)c1cnccn1 (stereo not given),inactive,
O=CNc1cc(-c2cccc(F)c2)cn2c(-c3ccc(F)c(Cl)c3)cnc12,active: 11.6 µM,
COC(=O)c1c(NC(=O)COC(=O)C2CCC2)sc(C)c1C,inactive,
CCc1cc(=O)oc2cc(OCC(=O)NCc3ccccn3)ccc12,"inconclusive [inhibitor, single point]",
COc1ccc(N2CCOCC2)c(NC(=O)c2cc3ccccc3o2)c1,"inconclusive [inhibitor, single point]",
Cc1cc(C(=O)COc2ccc(C#N)cc2)c(C)n1CC1CCCO1 (stereo not given),active: 13 µM,
N=c1c(C(=O)NCc2ccco2)cc2c(=O)n3ccccc3nc2n1Cc1ccccc1,"inconclusive [inhibitor, single point]",
C/C(=C\c1ccc(F)cc1)C(=O)c1c(C)cc(C)[nH]c1=O,"inconclusive [inhibitor, single point]",
COc1ccc(-c2nc3ccc(Cl)cn3c2Cc2ccccc2)cc1OC,"inconclusive [inhibitor, single point]",
CCC(=O)N(Cc1c(C)nn(-c2ccccc2)c1Cl)c1ccc(Cl)cc1,,inconclusive: -34.7% [inhibitor]
CCCC(O)(CCC)C(=O)NNc1ccccc1,inactive,
CC1=C(C(=O)OC2CCCCC2)C(c2cccnc2)n2ncnc2N1 (stereo not given),active: 20.6 µM,
CCOC(=O)c1c(C)sc(-c2c(-c3ccc4c(c3)OCCO4)[nH]c3c2c(=O)[nH]c(=O)n3C)c1O,"inconclusive [inhibitor, single point]",
COC(=O)CSc1nc2ccccc2c(=O)n1Cc1ccccc1,inactive,
CCOC(=O)C1CCN(C(=O)c2cc3cc4cc(OC)ccc4nc3o2)CC1,"inconclusive [inhibitor, single point]",
CCCOc1cc2c(C#N)c(N3CCCC3)nc(N)c2c(N)n1,inactive,
COc1ccc(NC(=O)C2(c3cccs3)CCOCC2)cc1Cl,"inconclusive [inhibitor, single point]",

Structure (SMILES),Potency,"activity change, negative = growth inhibition"
COC(=O)c1ccc(CN2CCC(CO)(Cc3cccc(OC)c3)CC2)cc1,"inconclusive [inhibitor, single point]",
O=C(CSc1ncccn1)N1CCC(Cc2ccccc2)CC1,"inconclusive [inhibitor, partial curve]",
COC(=O)c1[nH]c2cccc(C)c2c1NC(=O)CN1CCN(c2ccccc2OC)CC1,"inconclusive [inhibitor, single point]",
COC(=O)C1CCN(C(=O)CSc2ccccc2)CC1,,inconclusive: -13.2% [inhibitor]
Cc1ccc(-c2nnc(Nc3ccc(O)cc3)c3ccccc23)cc1S(=O)(=O)NCc1nc2ccccc2[nH]1,inactive,
COc1cccc(N2CCN(C(=O)c3c(C)oc4ncnc(N5CCCCC5)c34)CC2)c1,active: 18.4 µM,
CCOC(=O)c1c(NC(=O)CNCCOC)sc2c1CCCC2,active: 11.6 µM,
COCCn1c(-c2ccc(Cl)cc2)cnc1SCC(=O)NCCc1ccc(OC)c(OC)c1,"inconclusive [inhibitor, single point]",
Cc1ccc(NS(=O)(=O)c2ccc(C(=O)N3CCCCCC3)cc2)cc1,"inconclusive [inhibitor, single point]",
CCOC(=O)c1sc2nc(C)cc(-c3ccccc3)c2c1N,"inconclusive [inhibitor, single point]",
Cc1ccc(Cl)cc1N1CCN(CCCNc2ncnc3onc(-c4ccc(F)cc4)c23)CC1,active: 18.4 µM,
Cc1cc(Nc2sc(C(=O)c3ccc(F)cc3)c(N)c2C(=O)Nc2ccc(F)cc2)ccc1Cl,active: 3.66 µM,
Cc1noc(C)c1CSCC(=O)N(C)CC(=O)Nc1ccccc1C(F)(F)F,inactive,
COc1cc(C(=O)NCC(c2cccs2)N2CCOCC2)c([N+](=O)[O-])cc1OC (stereo not given),inactive,
N#Cc1c(NCCCO)nc(NCc2ccccc2)c2c1CCN(Cc1ccccc1)C2,"inconclusive [inhibitor, single point]",
O=C(Nc1ccc(-c2nc3ccccc3[nH]2)cc1)c1c(F)c(F)c(F)c(F)c1F,inactive,
O=C(NCc1ccccc1Cl)c1ccc(S(=O)(=O)Nc2cccc(C(F)(F)F)c2)cc1,"inconclusive [inhibitor, partial curve, poor fit]",
CC1CCN(c2nc(/C=C/c3ccccc3)nc3ccccc23)CC1,"inconclusive [inhibitor, single point]",
CCOc1ccc(S(=O)(=O)N2CCN(C(=O)Cc3n[nH]c(=O)c4ccccc34)CC2)cc1,"inconclusive [inhibitor, single point]",
CCC(C(=O)NC1CCCC1)N(C(=O)Cn1nnc(-c2ccc(C)o2)n1)c1cccc(OC)c1 (stereo not given),inactive,
Cc1ccc(O)c(-c2cc(C(F)(F)F)[nH]n2)c1,"inconclusive [inhibitor, single point]",
O=C(c1ccccn1)C1CCCN(Cc2cn[nH]c2-c2cc3ccccc3o2)C1 (stereo not given),"inconclusive [inhibitor, single point]",
